Experimental data published in PubChem BioAssay (Tox21).
Where “and” joins values, the source holds several entries; their conditions need not be identical. Equal entries are not always repeated. The inconclusive results got no clear call from the source; some entries with a clear call stand among them for comparison. Potencies of inconclusive entries are doubtful fits and often do not repeat. The source holds several records for some structures; these can differ, active in one and inactive in another. Calls of active or inactive are those of the source. The call rests on the fitted dose curve; in most records, active means well fitted cell-killing curve with a large enough effect in the repeat runs; inconclusive means weak or mixed curves, or effect the other way; inactive means flat fitted curve, though single readings scatter.

Test: qHTS assay to identify small molecule agonists of the androgen receptor (AR) signaling pathway in the presence of an antagonist - cell viability counter screen (AID 1259379); further: nearly all actives have a fitted effect of over 25% in size
Conditions: MDA-kb2 viability, CellTiter-Fluor, 16 h; series mostly up to 92.4 µM; activity change, negative = cytotoxicity: at the top concentration
Excerpt: National Center for Advancing Translational Sciences [NCATS]
NIH Chemical Genomics Center [NCGC]
U.S. Environmental Protection Agency [EPA]
National Institutes of Environmental Health Sciences [NIEHS]
National Toxicology Program [NTP]
U.S. Food and Drug Administration [FDA]
Androgen receptor (AR) is an important member of nuclear receptor family. Its signaling plays a critical role in AR-dependent prostate cancer and other androgen related diseases. Considerable attention has been given in the past decades to develop methods to study and screen for the environmental chemicals that have the potential to interfere with metabolic homeostasis, reproduction, developmental and behavioral functions. Therefore AR binding assay for screening against androgen agonists and antagonists can be used to identify potential endocrine disruptors.
MDA-kb2 cells (from ATCC, deposited by Wilson et al.) are human breast carcinoma cells that were stably transfected with a luciferase reporter gene under control of the MMTV promoter that contains response elements for both androgen receptor (AR) and glucocorticoid receptor (GR). This particular screening for measuring luciferase reporter gene activity using MDA-kb2 cells against Tox21 10K library compounds is a confirmation study on agonist mode screening in the presence of AR-antagonist compound (Nilutamide) at 3.0uM final concentration. The cytotoxicity of the compounds was tested in parallel by measuring the cell viability using CellTiter-Fluor assay system (Promega, Madison, WI) in the same wells.
Tox21 Assay Protocol Summary:
MDA-kb2 cells (cells cultured without CO2) were dispensed at 3,000 cells/well in 4uL of culture medium into white wall/solid-bottom 1536-well plates (Corning Life Sciences, Corning, NY) using a Multidrop Combi (Thermo Fisher Scientific Inc., Waltham, MA) dispenser. The assay plates were incubated at 37C and 0% CO2 for 5hr. One uL of 3.0uM (final concentration) Nilutamide or assay buffer was added using two separate tips of Flying Reagent Dispenser (FRD, Aurora Discovery, San Diego, CA). Then 23nL of compounds dissolved in DMSO at 15 concentrations and positive controls were transferred to the assay plates using a Pintool station (Wako, San Diego, CA). The assay plates were incubated at 37C and 0% CO2 for 16 hr. After 15hr incubation at 37C, 1uL/well CellTiter-Fluor reagent (Promega Corporation) was added to each well of the assay plates using FRD. After 1hr incubation at 37C and 0% CO2, the fluorescence signal was measured using a ViewLux plate reader (PerkinElmer, Shelton, CT).
On the % scale 0 is the no-effect control and ±100 the full control effect; potency means the concentration at half of the fitted maximal effect; tags describe the fitted curve by direction and shape.

Compound	Potency	activity change, negative = cytotoxicity
COC(=O)N(OC)c1ccccc1COc1ccn(-c2ccc(Cl)cc2)n1	active: 1.37 µM	–
O=S(=O)(c1ccc(Cl)cc1)c1cc(Cl)c(Cl)cc1Cl	inconclusive: 68.6 µM [cytotoxic, partial curve, poor fit]	–
OC[P+](CO)(CO)CO	inconclusive: 61.8 µM [cytotoxic, single point] and inconclusive: 77 µM [cytotoxic, single point]	–
CCC(C)(NC(=O)c1cc(Cl)c(C)c(Cl)c1)C(=O)CCl (stereo not given)	active: 61.5 µM	–
CC(C)(C)c1cc([N+](=O)[O-])cc([N+](=O)[O-])c1O	active: 15.3 µM	–
COP(=O)(OC)Oc1ccc([N+](=O)[O-])cc1	inconclusive: 54.5 µM [cytotoxic, partial curve]	–
N#CC(C#N)=C(C#N)C#N	inconclusive: 71.7 µM [cytotoxic, partial curve, poor fit]	–
CCCCCCCCCCCCCCCC[n+]1ccccc1	active: 25.5 µM [middle of 4 runs]	–
CCCCN(CCCC)C(=S)[S-].CCCCN(CCCC)C(=S)[S-].[Zn+2]	inconclusive: 68.5 µM [cytotoxic]	–
O=[N+]([O-])c1ccc2ccc3cccc4ccc1c2c34	active: 48.5 µM	–
CCOc1nc(C(Cl)(Cl)Cl)ns1	–	inactive: -0.53%
Oc1c(Cl)c(Cl)c(Cl)c(Cl)c1Cl	inconclusive: 67.2 µM [cytotoxic] and inconclusive: 68.6 µM [cytotoxic, single point]	–
CC(C)(O)C(=O)Nc1ccc([N+](=O)[O-])c(C(F)(F)F)c1	inconclusive: 55.6 µM [cytotoxic, partial curve] and inconclusive: 39.8 µM [cytotoxic, partial curve]	–
O=C(NC(=O)c1c(F)cccc1F)Nc1cc(Cl)c(Oc2ncc(C(F)(F)F)cc2Cl)c(Cl)c1	inconclusive: 36.9 µM [cytotoxic, partial curve, poor fit]	–
Nc1ccc([N+](=O)[O-])cc1[N+](=O)[O-]	inconclusive: 53.1 µM [cytotoxic, partial curve]	–
[O-][Cl+]O	–	inactive: 1.3%
Cc1cc(C(C)(C)c2ccc(O)c(C)c2)ccc1O	inconclusive: 65.3 µM [cytotoxic]	–
O=C1NCN(c2ccccc2)C12CCN(CCCOc1ccc(F)cc1)CC2	inconclusive: 23.7 µM [cytotoxic, partial curve]	–
Cc1cc(C)c(C(=O)P(=O)(c2ccccc2)c2ccccc2)c(C)c1	inconclusive: 61.1 µM [cytotoxic]	–
Cc1c(Cl)c(=O)oc2cc(OP(=O)(OCCCl)OCCCl)ccc12	inconclusive: 33.5 µM [rising, partial curve, poor fit]	–

Compound	Potency	activity change, negative = cytotoxicity
Nc1ccc(Cc2ccc(N)c(Cl)c2)cc1Cl	inconclusive: 66.3 µM [cytotoxic, partial curve, poor fit]	–
O=C1c2ccccc2C(=O)C1C(=O)C(c1ccccc1)c1ccccc1	–	inactive: -16.2% [at 42.5 µM]
Clc1ccc(CCC(Cn2ccnc2)Sc2c(Cl)cccc2Cl)cc1 (stereo not given)	inconclusive: 23.7 µM [cytotoxic, partial curve]	–
CCCCCCCCn1cc[n+](C)c1	active: 4.85 µM [middle of 4 runs]	–
C=CCOC(Cn1ccnc1)c1ccc(Cl)cc1Cl (stereo not given)	active: 61.3 µM and inconclusive: 68.6 µM [cytotoxic]	–
CC(O)(CS(=O)(=O)c1ccc(F)cc1)C(=O)Nc1ccc(C#N)c(C(F)(F)F)c1 (stereo not given)	–	inactive: 0.794% [at 42.5 µM]
COc1ccc2c3c1O[C@H]1[C@@H](O)C=C[C@H]4[C@@H](C2)N(C)CC[C@@]341	inconclusive: 33.8 µM [cytotoxic, partial curve]	–
O.O.O.O=C([O-])[C@H]([O-])[C@@H]([O-])C(=O)[O-].O=C([O-])[C@H]([O-])[C@@H]([O-])C(=O)[O-].[K+].[K+].[Sb+3].[Sb+3]	active: 17.3 µM	–
O=[N+]([O-])c1cc(C(F)(F)F)cc([N+](=O)[O-])c1Cl	inconclusive: 30.8 µM [cytotoxic, partial curve]	–
CC1COC2(c3ccccc3Cl)c3cc(Cl)ccc3NC(=O)CN12 (stereo not given)	–	inactive: -1.96% [at 42.5 µM]
O=c1[nH]c2ccccc2n1CCCN1CCC(n2c(=O)[nH]c3cc(Cl)ccc32)CC1	inconclusive: 26.6 µM [cytotoxic, partial curve, poor fit]	–
Cl/C=C\C[N+]12CN3CN(CN(C3)C1)C2	inconclusive: 68.6 µM [cytotoxic, single point]	–
Cl/C=C\Cl	–	inactive: 2.05%
NCCc1ccc(O)cc1	inactive	–
Clc1cc(C(Cl)(Cl)Cl)cnc1Cl	active: 24.3 µM	–
CCOP(=S)(OCC)Oc1ccc2c(C)c(Cl)c(=O)oc2c1	inconclusive: 68.6 µM [cytotoxic, single point]	–
CCOP(=S)(NC(C)C)Oc1ccccc1C(=O)OC(C)C (stereo not given)	inconclusive: 38.6 µM [cytotoxic, partial curve]	–
N#CCCl	inconclusive: 71.5 µM [cytotoxic, partial curve, poor fit]	–
O=S(=O)(O)C(F)(F)C(F)(F)C(F)(F)C(F)(F)C(F)(F)C(F)(F)C(F)(F)C(F)(F)F	inconclusive: 54.5 µM [cytotoxic, partial curve, poor fit]	–
CCOCn1c(-c2ccc(Cl)cc2)c(C#N)c(Br)c1C(F)(F)F	active: 6.86 µM	–
